Data: PubChem BioAssay AID1159580 (chemical genetic matrix, 2015)
The whole screen tested about 5,500 compounds, of which about 2,000 (36%) were called active. The shares of active, inactive and inconclusive entries below differ from those in the screen. No stated cut-off is given here; in the data, active means normalized growth mostly below about 0.91 (no sharp cut-off); inconclusive means no clear call, values can overlap the other calls; inactive means mostly above about 0.92. A structure can be active in one record and inactive in another.

Assay: chemical genetic growth profiling, strain panel (AID 1159580);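 further: tested at 20 µM; growth read once vehicle control cultures reached saturation at 30 °C; 1 = growth at the plate median or of vehicle wells; lower values mean less growth of the strain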
Conditions: S. cerevisiae deletion strains, growth OD
[1] = locus YFR028C, strain CDC14, hits give low values
[2] = locus YMR263W, strain SAP30, hits give low values
[3] = locus YAL013W, strain DEP1, hits give low values
[4] = locus YAL040C, strain CLN3, hits give low values
[5] = locus YCL061C, strain MRC1 (second series), hits give low values
[6] = locus YDR363W, strain ESC2, hits give low values
[7] = locus YER002W, strain NOP16, hits give low values
[8] = locus YMR307W, strain GAS1, hits give low values
[9] = locus YNL128W, strain TEP1, hits give low values
[10] = locus YNL175C, strain NOP13, hits give low values
[11] = locus YNL197C, strain WHI3, hits give low values
[12] = locus YNL224C, strain SQS1, hits give low values
[13] = locus YOR083W, strain WHI5 (second series), hits give low values
[14] = locus YPL241C, strain CIN2, hits give low values
[15] = locus YKL009W, strain mrt4, hits give low values

With `CC(C)(CCC(C)(C)N1C(=O)c2cccc3cccc(c23)C1=O)N1C(=O)c2cccc3cccc(c23)C1=O` the normalized growth (locus YFL009W, strain cdc4, hits give low values) was inconclusive: 0.518 [sensitive], the normalized growth [1] was inconclusive: 0.543 [sensitive] and the normalized growth (locus YPR106W, strain ISR1, hits give low values) was inconclusive: 0.777 [sensitive].
With `COc1cc(OC)c2c(=O)c(O)c(-c3ccc(OC)c(OC)c3)oc2c1` the normalized growth (locus YGL086W, strain mad1, hits give low values) was inconclusive: 0.811 [sensitive].
With `COc1cc(OC)cc(OC)c1` the normalized growth (locus YOL012C, strain htz1) was inconclusive: 0.203 [sensitive].
In the case of `COc1ccc(-c2c(C)nc3ccc(Cl)cc3c2-c2ccccc2)cc1OC`, the normalized growth [2] is reported as inconclusive: 0.834 [sensitive].
With `N[C@@H](Cc1cc(I)c(Oc2cc(I)c(O)c(I)c2)c(I)c1)C(=O)O` the normalized growth (locus YOR136W, strain idh2, hits give low values) was inconclusive: 1.16 [resistant].
In the case of `C[C@@H](Oc1ccc(Oc2cnc3ccc(Cl)cc3n2)cc1)C(=O)O`, the normalized growth [3] is reported as inactive: 1.04, the normalized growth [4] is reported as inactive: 1.04 and the normalized growth [5] is reported as inactive: 1. The normalized growth [6] was inactive: 1.01, the normalized growth [7] was inactive: 0.995 and the normalized growth (locus YGR078C, strain PAC10, hits give low values) was inactive: 1.01. The normalized growth (locus YGR229C, strain SMI1, hits give low values) was inactive: 1.02, the normalized growth (locus YJR075W, strain HOC1, hits give low values) was inactive: 1 and the normalized growth [2] was inactive: 1.01. For the same molecule, the normalized growth [8] was inactive: 0.983, the normalized growth [9] was inactive: 0.996 and the normalized growth [10] was inactive: 0.984. The normalized growth [11] was inactive: 0.996, the normalized growth [12] was inactive: 0.997 and the normalized growth (locus YNL322C, strain KRE1, hits give low values) was inactive: 1. For the same molecule, the normalized growth [13] was inactive: 1 and the normalized growth [14] was inactive: 1.
With `CN[C@@H]1[C@@H](O[C@H]2O[C@H](CO)[C@@H](N)[C@H](O)[C@H]2O)O[C@H]2C[C@@H](N)[C@H](O[C@H]3[C@H](O)[C@@H](O)[C@H](N)C[C@@H]3N)O[C@@H]2[C@@H]1O` the normalized growth (locus YDL040C, strain nat1, hits give low values) was inconclusive: 1.16 [resistant].
For `C=CCCCCCCCCCCCc1ccco1`, the normalized growth (locus YDR334W, strain swr1, hits give low values) was inconclusive: 0.892 [sensitive].
With `OCC(O)Cn1c2ccccc2c2ccccc21` (centres undefined) the normalized growth (locus YBR229C, strain ROT2, hits give low values) was inconclusive: 0.921 [sensitive].
In the case of `O=C(O)c1cccc2cccc(C(=O)O)c12`, the normalized growth (locus YDL101C, strain DUN1, hits give low values) is reported as inconclusive: 0.547 [sensitive], the normalized growth (locus YDL132W, strain cdc53, hits give low values) is reported as inconclusive: 0.543 [sensitive] and the normalized growth (locus YDR226W, strain ADK1, hits give low values) is reported as inconclusive: 0.524 [sensitive]. The normalized growth [1] was inconclusive: 0.537 [sensitive] and the normalized growth (locus YPR111W, strain DBF20, hits give low values) was inconclusive: 0.512 [sensitive].
In the case of `c1ccc(-c2cc3c(ccc4nonc43)nn2)cc1`, the normalized growth [3] is reported as inconclusive: 0.932 [sensitive].
For `CC(=O)OC1CN2CCC1CC2` (centres undefined), the normalized growth (locus YOR069W, strain VPS5, hits give low values) was inconclusive: 0.914 [sensitive].
With `NC(=NCCC[C@H](N)C(=O)O)N[N+](=O)[O-]` the normalized growth (locus YNL250W, strain rad50, hits give low values) was inconclusive: 0.894 [sensitive].
For `NCCCCN=C(N)N`, the normalized growth (locus YHR129C, strain ARP1, hits give low values) was inconclusive: 1.2 [resistant] and the normalized growth (locus YOR231W, strain MKK1, hits give low values) was inconclusive: 0.75 [sensitive].
For `O=C(O)[C@H]1NCCC[C@H]1C(=O)O`, the normalized growth [4] was inactive: 1.06, the normalized growth [5] was inactive: 0.986 and the normalized growth (locus YDR150W, strain NUM1, hits give low values) was inactive: 1.01. The normalized growth [6] was inactive: 0.991, the normalized growth [7] was inactive: 0.993 and the normalized growth [2] was inactive: 0.99. For the same molecule, the normalized growth [8] was inactive: 0.991, the normalized growth [9] was inactive: 0.994 and the normalized growth [10] was inactive: 1. For the same molecule, the normalized growth [11] was inactive: 0.982, the normalized growth [12] was inactive: 0.999 and the normalized growth [13] was inactive: 0.984. The normalized growth (locus YPL055C, strain LGE1, hits give low values) was inactive: 1 and the normalized growth [14] was inactive: 0.996.
For `COc1cc2nc(N(C)CCCNC(=O)C3CCCO3)nc(N)c2cc1OC` (centres undefined), the normalized growth (locus YKL160W, strain elf1, hits give low values) was inconclusive: 0.521 [sensitive].
With `NC(N)=Nc1ccc(Cl)cc1` the normalized growth (locus YEL061C, strain CIN8, hits give low values) was inconclusive: 1.08 [resistant].
In the case of `COc1ccc2cc([C@H](C)CO)ccc2c1`, the normalized growth (locus YML124C, strain tub3, hits give low values) is reported as inconclusive: 0.879 [sensitive].
With `C1CCC(C(CC2CCCCN2)C2CCCCC2)CC1` (centres undefined) the normalized growth (locus YOL012C, strain htz1) was inconclusive: 0.206 [sensitive].
In the case of `CC1(C)C=Cc2c(cc3occ(-c4ccc5c(c4)OCO5)c(=O)c3c2O)O1`, the normalized growth [15] is reported as inconclusive: 1.15 [resistant], the normalized growth (locus YKL085W, strain MDH1 (second series), hits give low values) is reported as inconclusive: 1.09 [resistant] and the normalized growth (locus YKL085W, strain MDH1, hits give low values) is reported as inconclusive: 1.09 [resistant].
In the case of `COc1c(CC=C(C)C)c2c(c3oc(=O)c(-c4ccc(OC(C)=O)cc4)c(OC(C)=O)c13)C=CC(C)(C)O2`, the normalized growth [15] is reported as inconclusive: 1.25 [resistant].
